# Source: the supplement of paper PMC11417369
# The list shows a part of the results.
# Tested on: PfAP2-HC AP2 domain (GST-tagged)
# Experiment: gcPBM binding intensity (ln(normalized median fluorescence intensity)); higher = stronger DNA binding
# Outline: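 Binding intensity is the highest Masliner-normalised natural-log median intensity over replicate spots in either probe orientation. To obtain it, GST-tagged P. falciparum DNA-binding domains made in E. coli were incubated for 1 h on an Agilent 4 × 180k array of primer-extended double-stranded 36-bp intergenic genomic probes plus negative controls. Detection used Alexa488 anti-GST antibody with scanning at 488 nm.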
row,Sequence,gcPBM binding intensity (ln)
1,TATGTCTTGTTGTAAAATATTTATTAACAAATTGGC [CACACA_negctrl_site1452],9.34
2,TTATAAAACACAAAATGTACAAAAAATTATAATTAA [XGTACX_site6859],9.71
3,TTAAAGAATATTTTCACACATAAAAATTTTAATTTA [CACACA_site4290],9.32
4,AATATTATTATCTTACCACACACAATCTACGAAAAG [CACACA_site8006],10.3
5,CACATAAAATAAGGTGCATGCAAACGAGAAAATAAA [TGCATGCA_site75],10.1
6,AAAAAAAATATATTACAAAACTTAGGATCCTAATAT [CACACA_negctrl_site470],9.62
7,AATAAATATATTAAAAGTACACAAATATTATTTAAT [XGTACX_site2482],9.71
8,AAGATTAAACATTGCACACAAAAACATATTTTCTAT [CACACA_site530],9.87
9,ATATATATATAATAATGTACTTATAATAGATGTGTA [XGTACX_site4677],9.72
10,ATATTTTATATAATAGTGCAAATAATATTAAATAAT,9.6
11,ATTATAATATTTAATTGTACTTGTATTTATTCCAAA [XGTACX_site6417],9.6
12,TAATAAAAAGTTGAGGTGCATATAGAGTTCTTCTTT [GTGCAC_site9508],9.65
13,TGCCCTTTGGTTATAACACACATGCACCCGTAAATA [CACACA_site3842],9.75
14,CAAAGGAAACCTATCTGTACACATATTGGGGGAAAA [XGTACX_site3502],9.55
15,AGAAGATTAAACATTGCACACAAAAACATATTTTCT [CACACA_site8072],9.8
16,AATATATAAGCTGTTCTATTCAAGAATTATATCTTA [CACACA_negctrl_site270],9.46
17,CGTAAACGATATAAATGTACGAATATCTATATATTA [XGTACX_site8116],9.54
18,TATATATTGCCCTTCACACACACACCGATATATATA [CACACA_site5390],10.3
19,GAACGATATATTATATGTACATATATATATATATAT [XGTACX_site394],9.71
20,TCGTTTCATAATATTGTGCACATATATATTTACAAT,9.85
21,TATTTCATCTTTTAAGAAGGTACCCATATGTCATAT [GTGCAC_negctrl_site403],9.57
22,ATATATATATATATTTGTACTTACATTTTTATTTAT [XGTACX_site4551],9.82
23,AAAAATATAACCGTTACACACAAAATAATATGAGAA [CACACA_site3773],9.93

row,Sequence,gcPBM binding intensity (ln)
1,ATAATAAGGTTAAGCACACATATTACATATATAACT [CACACA_site3356],10
2,AATAGGATATGGTACATTTTTTGTATACTTTTTGTT [CACACA_negctrl_site1804],9.76
3,AAACAAGTAATTGTTATTATTATTATATTATTATTA [CACACA_negctrl_site402],9.47
4,ATAAATTCTATGTATACACACATATATAATATATAT [CACACA_site2689],9.99
5,GTTATTAAATAATTCACACACATATATATATATATA [CACACA_site2260],9.93
6,TATGGAACACACCTTAATATGTGATAAAATATGATA [GTGCAC_negctrl_site718],9.71
7,TATTCCTATATACAGCGTACAAAAAATAATATGTAT [XGTACX_site8112],9.64
8,CGCAACGTGAAAATACGTACACATACATTTTTATAT [XGTACX_site330],9.65
9,AAATATTATGTACGCACACACATTTTTGATATATAA [CACACA_site7755],10.1
10,TAATCGTTTTATAAATGTACAAAATTGTTATGTTAT [XGTACX_site5147],9.57
11,GGGGGAAGGTTGAAGGTGCTTGATGGAGAAAAATAT,9.77
12,TTAATACATACATTCACACACACTAAATGTATATTT [CACACA_site4105],10.1
13,AAAATAGAGTTGAATGCACACATACAAATTTTTAGG [CACACA_site9188],10.1
14,ATAAATAATTTATTCACACATACAAAAGTTTACAAA [CACACA_site5666],9.63
15,TTATTAAATTCTTTATTTAGCATATACAATAAAAGA [CACACA_negctrl_site1420],9.05
16,TTTTTTTTTTTTGAAGTGCATGTTACGATGAACAAA [GTGCAC_site9451],9.16
17,CTAAAAAGAGAAGTGTGTCCTCAAATTAATATAATT [XGTACX_site1057],9.63
18,TCTTATATAACGAAAGTAAAATAATATGCTAAGCAT [CACACA_negctrl_site668],9.38
19,AATGAATATTAAAGGAGTACACATAATAAGTAAGAA [XGTACX_site7354],10
20,TATATAAAAATATACACACACAAATGTATTTATATA [CACACA_site4284],9.93
21,GAAAAAAAAAAAAATACACACAAATTGGTATAGAAT [CACACA_site380],10.2
22,GATTATTTCTAAAAAGTGCATATTTAAAAATCTCCT,9.26
23,ATTGTTTTGTAATATGAAAAAATTGTGTAATGTGTC [CACACA_negctrl_site1510],9.66

row,Sequence,gcPBM binding intensity (ln)
1,TATTATATTATACATACACACCCATATAATATGTTT [CACACA_site8191],9.83
2,AAATTCGTAATAATGTGTACATAACTATACATAATT [XGTACX_site1717],9.78
3,AAAAAATAGAATATGGGTACTAAAAAGATACAAACA [XGTACX_site4464],9.8
4,ATTTATATGAAAATATGTACTTATATAAATTTATTT [XGTACX_site53],9.64
5,TTTATTTTTAACAGTGCACACATAACTTAATTATAT [CACACA_site8681],9.8
6,TATACAGATGGACACACACACATAAATAAATATATA [CACACA_site4863],10.4
7,TACTATAACCCACATACACACAAAAAAAAAAAAAAA [CACACA_site4454],10.2
8,TGGTTTATTTATTAAGTGCATAAATGCAATATATAT,9.54
9,TATTATATATTTAATAGTACATATAAAATAATAAGG [XGTACX_site4823],9.58
10,TTTATGTAATATACATGTACAGAATATAAAATATAT [XGTACX_site6906],9.7
11,AAAAAATATAGATGCACACACAAAAAAACAAATTAA [CACACA_site6718],10.5
12,TTAACTTCTTTAAAATGTACATATATTAAATAATAA [XGTACX_site3391],9.28
13,TATTCTTACATCACCTCACACATTTAATATTCCTTA [CACACA_site4693],9.78
14,GTATTATTATTTTATGCATGTACATTGAATTATATT [TGCATGCA_site34],9.86
15,AGATTTTGAAATTATAAAAAAATTTCACTTCATTTA [CACACA_negctrl_site888],9.29
16,ATATATATATATCAGAGTACATTCTTTAAAATATAT [XGTACX_site5915],9.56
17,TATAAATATGTATATGCATGTGGAATATATAATTAA [TGCATGCA_site226],9.69
18,AAATAAAACAGACACACACACACATACACAAAAAAA [CACACA_site7753],10.9
19,ATATGAGTATAAAAATGTACGGAGCAACTAAATATA [XGTACX_site620],9.8
20,ATTACAACCACATTGACATGCAAATGTAGAGGGGGA [TGCATGCA_site694],9.8
21,TGTCACCTATTTTTTTGTACGTATGTCCATTTTTTT [XGTACX_site4368],10.2
22,AAAAAAAAAGAGGCGTGTACATATATAATTTAAATT [XGTACX_site6827],9.8
23,TTATTAAAGTATAACTGTACATGCGAGTAAAAGAAT [XGTACX_site7388],9.95

row,Sequence,gcPBM binding intensity (ln)
1,TGTTCTAATATTTGTTGTACATTTACATTTCTCTCT [XGTACX_site2585],9.81
2,ATAATAGAAACAAACAGTACACATACCTAAAAGGAA [XGTACX_site8647],9.84
3,TATTTTATTTCAAATCTTAATAATTGTAATTCTTCA [XGTACX_negctrl_site442],9.45
4,TTTTAATTAGAAATCATACACACATATATATATATA [CACACA_site174],9.7
5,ATTTTTAAAATAAATACATGCATATATTTATATGTT [TGCATGCA_site394],9.57
6,TGTGTAATACATAATACACACATGTATATGTCGCAT [CACACA_site4757],9.86
7,ATTTACATAAACGTCTGTACTAATATACAATTTTCT [XGTACX_site1700],9.75
8,CATAAAATTGTATTTTGTACACATTTTGTATACATT [XGTACX_site5705],9.77
9,TATATATAGAAACACACACACATATATATATATATT [CACACA_site4115],10.5
10,TTTCAAAGGAAATGGTGTACACAATTTTTCCTTTTT [XGTACX_site2340],9.47
11,TTTTATTATTCTTCTCTCTTATATATATATATATAT [CACACA_negctrl_site646],9.98
12,ATAACATAGGCAATCACACATATCATTAAGGTGTCA [CACACA_site5233],9.77
13,TACTTTTATATGAATACACACAGGAATATATATATG [CACACA_site3568],9.71
14,ACTGTGGTATAAAGTTGTACATGTTTTTATATATTT [XGTACX_site5257],10
15,TTACTTTAACCTTCTCGTACTTATTTACTTTATTCT [XGTACX_site7801],9.9
16,TCGATTAAAACACAAAAATATAAATACATTGATAAA [TGCATGCA_negctrl_site523],9.44
17,TTAATAAATATGTTTACACACGAAAATACATTTTTT [CACACA_site8245],9.81
18,TTAAAAGTTATGGATACACACATATAAATATAGATT [CACACA_site7175],9.84
19,ATTTTAATTTTTTAAGTATTATATGAATATTTATTA [TGCATGCA_negctrl_site142],9.48
20,ACATATATATATATATATATATATATATATTCTTAA [CACACA_negctrl_site930],9.41
